From publication PMC10320511
These are yes or no findings as the source states them, for the method shown. Binding seen in cells or lysates may run through a third protein. Some binding calls cover weakened binding; strength is not graded here. Where a sequence is shown, tags or fusion partners need not be part of it.

Sequences of proteins named here, by UniProt entry; tags and fusion partners are left off.
UniProt Q01371: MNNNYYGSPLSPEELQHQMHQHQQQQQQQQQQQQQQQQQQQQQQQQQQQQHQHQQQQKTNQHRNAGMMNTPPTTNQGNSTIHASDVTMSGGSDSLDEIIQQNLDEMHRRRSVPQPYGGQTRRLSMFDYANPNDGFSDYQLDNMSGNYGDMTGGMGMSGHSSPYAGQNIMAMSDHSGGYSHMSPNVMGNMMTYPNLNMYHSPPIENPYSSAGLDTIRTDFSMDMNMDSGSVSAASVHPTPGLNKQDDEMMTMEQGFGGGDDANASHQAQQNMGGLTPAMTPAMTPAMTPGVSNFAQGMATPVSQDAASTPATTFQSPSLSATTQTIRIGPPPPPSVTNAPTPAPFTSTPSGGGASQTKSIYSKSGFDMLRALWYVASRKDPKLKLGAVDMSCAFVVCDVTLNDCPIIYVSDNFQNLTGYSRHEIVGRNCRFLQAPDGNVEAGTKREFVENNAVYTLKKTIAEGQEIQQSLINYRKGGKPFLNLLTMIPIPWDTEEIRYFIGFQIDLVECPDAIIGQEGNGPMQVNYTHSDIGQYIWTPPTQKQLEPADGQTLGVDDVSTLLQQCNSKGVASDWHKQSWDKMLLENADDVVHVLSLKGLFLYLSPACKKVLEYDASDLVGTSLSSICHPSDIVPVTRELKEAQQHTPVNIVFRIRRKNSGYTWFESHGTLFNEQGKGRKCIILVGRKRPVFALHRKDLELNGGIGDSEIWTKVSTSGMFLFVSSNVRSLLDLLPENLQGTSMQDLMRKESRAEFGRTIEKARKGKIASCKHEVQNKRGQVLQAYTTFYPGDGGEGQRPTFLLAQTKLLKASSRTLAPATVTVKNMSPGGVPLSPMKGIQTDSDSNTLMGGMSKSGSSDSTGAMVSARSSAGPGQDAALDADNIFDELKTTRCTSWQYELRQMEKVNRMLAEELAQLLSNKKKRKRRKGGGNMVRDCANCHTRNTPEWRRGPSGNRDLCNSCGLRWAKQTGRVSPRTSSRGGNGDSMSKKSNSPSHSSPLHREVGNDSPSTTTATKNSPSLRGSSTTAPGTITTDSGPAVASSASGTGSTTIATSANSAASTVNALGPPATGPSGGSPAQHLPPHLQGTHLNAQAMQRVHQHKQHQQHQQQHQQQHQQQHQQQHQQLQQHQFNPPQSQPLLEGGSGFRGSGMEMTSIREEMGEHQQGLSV

Key:
[1] = target: T1, FRQ Δ733–774, V5H6-tagged (Neurospora crassa) (UniProt P19970); assay: co-IP; V5H6-tagged FRQ (wild type or mutant) pulled down with V5 agarose from Neurospora lysate (cultures in the light, 25 °C); 50 mM Hepes pH 7.4, 137 mM NaCl, 10% glycerol, 0.4% NP-40; 4 °C, 2 h; Western blot with FRQ, FRH, WC-1 and WC-2 antibodies
T1 sequence: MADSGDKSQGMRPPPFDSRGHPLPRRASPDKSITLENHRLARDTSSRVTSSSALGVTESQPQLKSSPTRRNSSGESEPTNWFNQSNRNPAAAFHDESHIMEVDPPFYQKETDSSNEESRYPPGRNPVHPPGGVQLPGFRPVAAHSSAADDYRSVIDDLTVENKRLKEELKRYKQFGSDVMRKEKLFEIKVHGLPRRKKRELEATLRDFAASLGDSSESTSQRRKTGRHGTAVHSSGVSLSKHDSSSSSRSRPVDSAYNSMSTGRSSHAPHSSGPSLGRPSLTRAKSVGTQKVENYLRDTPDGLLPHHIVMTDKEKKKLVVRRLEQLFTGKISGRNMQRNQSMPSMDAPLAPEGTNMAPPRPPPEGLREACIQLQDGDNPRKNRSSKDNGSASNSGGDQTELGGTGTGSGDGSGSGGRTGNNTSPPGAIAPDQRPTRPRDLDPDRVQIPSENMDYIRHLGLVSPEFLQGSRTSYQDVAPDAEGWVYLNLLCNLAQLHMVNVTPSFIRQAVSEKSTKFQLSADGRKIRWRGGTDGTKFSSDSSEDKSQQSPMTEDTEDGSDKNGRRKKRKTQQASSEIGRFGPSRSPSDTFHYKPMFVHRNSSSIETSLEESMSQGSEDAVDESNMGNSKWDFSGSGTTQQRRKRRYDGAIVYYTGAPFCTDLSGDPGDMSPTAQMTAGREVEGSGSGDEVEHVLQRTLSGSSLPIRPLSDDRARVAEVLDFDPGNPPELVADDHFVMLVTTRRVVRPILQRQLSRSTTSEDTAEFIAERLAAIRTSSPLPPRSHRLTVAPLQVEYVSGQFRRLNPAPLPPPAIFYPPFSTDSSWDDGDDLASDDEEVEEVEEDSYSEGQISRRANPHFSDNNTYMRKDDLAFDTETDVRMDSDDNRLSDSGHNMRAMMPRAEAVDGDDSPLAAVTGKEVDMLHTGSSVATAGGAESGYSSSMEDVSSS

[2] = target: T2, FREQUENCY (FRQ), wild type, tagged with V5H6 (Neurospora crassa) (UniProt P19970); assay: as above
T2 sequence: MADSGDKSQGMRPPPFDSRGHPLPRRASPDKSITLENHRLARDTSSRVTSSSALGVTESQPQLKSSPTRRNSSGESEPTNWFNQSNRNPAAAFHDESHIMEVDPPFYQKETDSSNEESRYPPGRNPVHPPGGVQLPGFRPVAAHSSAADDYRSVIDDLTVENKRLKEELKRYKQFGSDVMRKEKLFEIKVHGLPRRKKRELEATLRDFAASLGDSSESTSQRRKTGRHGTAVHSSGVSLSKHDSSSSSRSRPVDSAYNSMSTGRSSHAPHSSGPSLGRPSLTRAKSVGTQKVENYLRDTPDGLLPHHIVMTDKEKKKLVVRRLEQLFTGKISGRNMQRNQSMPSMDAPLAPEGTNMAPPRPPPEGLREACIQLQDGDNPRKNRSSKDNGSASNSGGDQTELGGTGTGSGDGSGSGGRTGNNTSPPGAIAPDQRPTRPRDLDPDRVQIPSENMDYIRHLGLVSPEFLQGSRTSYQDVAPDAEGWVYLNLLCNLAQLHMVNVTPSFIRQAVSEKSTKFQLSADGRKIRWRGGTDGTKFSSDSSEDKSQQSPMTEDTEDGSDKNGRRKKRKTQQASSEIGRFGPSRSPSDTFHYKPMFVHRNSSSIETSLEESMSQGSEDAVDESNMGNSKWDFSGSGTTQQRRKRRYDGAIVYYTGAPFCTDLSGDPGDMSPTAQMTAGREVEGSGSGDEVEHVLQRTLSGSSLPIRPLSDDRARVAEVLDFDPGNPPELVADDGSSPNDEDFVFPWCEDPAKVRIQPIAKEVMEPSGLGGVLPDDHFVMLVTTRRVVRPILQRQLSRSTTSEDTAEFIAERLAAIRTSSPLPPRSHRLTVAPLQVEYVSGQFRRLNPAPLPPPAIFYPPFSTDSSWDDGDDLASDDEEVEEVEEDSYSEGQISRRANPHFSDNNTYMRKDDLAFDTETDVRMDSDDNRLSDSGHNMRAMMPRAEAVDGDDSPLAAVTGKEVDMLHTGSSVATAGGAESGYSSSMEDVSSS

binding [1]: no binding
binding [2]: binds
Substance: White Collar-1 (WC-1) (from UniProt Q01371 1-1167)
